PubChem BioAssay (Tox21)
Values joined by “and” are separate entries in the source; they are usually repeats but may differ in a detail not shown here. Equal values may be shown once. Inconclusive means that the source gave no clear call. Such entries were picked first, then a sample of the others. For some assays here: A potency beside an inconclusive call is a rough fit, not a confirmed value. Active and inactive are the calls of the source. Unless noted, the call rests on the fitted dose curve; in most records, active means well fitted curve in the direction sought with a large enough effect in the repeat runs; inconclusive means weak or mixed curves; inactive means no such curve, though single readings can be large; an effect the other way counts as inactive or inconclusive.

Tests used:
[1] = biological target: Aryl hydrocarbon receptor (Homo sapiens) (UniProt P35869); test: qHTS assay to identify small molecule that activate the aryl hydrocarbon receptor (AhR) signaling pathway (AID 743085); further: nearly all actives have a fitted effect of over 15% in size; further: potency means the concentration at half of the fitted maximal effect;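 on activation: HG2L7.5c1 human HepG2 liver cells with stably integrated DRE-driven firefly reporter; on the % scale 0 is the no-effect control and ±100 the full control effect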
Method in brief: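 Luminescence (ONE-Glo) from a dioxin-responsive-element luciferase reporter in HG2L7.5c1 HepG2 cells after 24 hr compound exposure at 37C; viability measured by CellTiter-Fluor fluorescence beforehand.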

[2] = biological target: Peroxisome proliferator-activated receptor gamma (Homo sapiens) (UniProt P37231); test: qHTS assay to identify small molecule antagonists of the peroxisome proliferator-activated receptor gamma (PPARg) signaling pathway (AID 743191; calls by dose curve; further: nearly all actives have a fitted effect of over 30% in size; further: potency means the concentration at half of the fitted maximal effect; on ratio activity, negative = inhibition: on the % scale 0 is the no-effect control and ±100 the full control effect); settings: HEK293H PPARg-UAS-bla, beta-lactamase ratio, antagonist, 17 h; ratio activity, negative = inhibition: at 62.6 µM (top of the series) unless noted
Method in brief: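 GeneBLAzer PPARg UAS-bla HEK293H cells, 5 h post-plating, exposed to compounds 17 h at 37C. LiveBLAzer B/G FRET substrate added for 1 h at room temperature; beta-lactamase reporter read by fluorescence intensity.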

[3] = qHTS assay for small molecule agonists of the antioxidant response element (ARE) signaling pathway (AID 743202; active means well fitted activation curve with a large enough effect in the signal ratio in the repeat runs, not every such curve was filed as active; inconclusive means weak or mixed curves, or effect the other way; inactive means no such curve, though single readings can be large or run the other way; the % refers to the signal ratio; further: potency means the concentration at half of the fitted maximal effect); settings: HepG2 ARE-bla reporter, beta-lactamase FRET, 16 h; activation: at 73.3 µM (top of the series) unless noted
Method in brief: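 Agonist mode reporter screen: HepG2 cells with ARE-controlled beta-lactamase are incubated with test compounds for 16 h at 37 C, and beta-lactamase activity is measured as fluorescence of cleaved B/G FRET substrate.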

[4] = qHTS assay for small molecule activators of the heat shock response signaling pathway - cell viability counter screen (AID 743209); settings: HSE-bla HeLa viability, CellTiter-Glo luminescence, 5 h; activity change, negative = cytotoxicity: at 62.6 µM (top of the series) unless noted; further: potency means the concentration at half of the fitted maximal effect; nearly all actives have a fitted effect of over 50% in size
Method in brief: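 CellSensor HSE-bla HeLa cells, plated overnight at 37 C/5% CO2, were exposed to compounds in DMSO for 5 h at 37 C. Viability was then read in the same wells by CellTiter-Glo luminescence after 30 min at room temperature.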

[5] = biological target: Peroxisome proliferator-activated receptor delta (Homo sapiens) (UniProt Q03181); test: qHTS assay to identify small molecule antagonists of the peroxisome proliferator-activated receptor delta (PPARd) signaling pathway (AID 743215; active means well fitted inhibition curve with a large enough effect in the signal ratio in the repeat runs, not every such curve was filed as active; inconclusive means weak or mixed curves, or effect the other way; inactive means no such curve, though single readings can be large or run the other way; the % refers to the signal ratio;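 further: cells stimulated with agonist L165041 at 300 nM final during compound exposure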; further: potency means the concentration at half of the fitted maximal effect; on ratio activity, negative = inhibition: on the % scale 0 is the no-effect control and ±100 the full control effect); settings: HEK293H PPARd-UAS-bla, beta-lactamase FRET ratio, antagonist, 17 h; ratio activity, negative = inhibition: at 62 µM (top of the series) unless noted
Method in brief: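 PPARd UAS-bla HEK293H cells were pre-incubated 5 h at 37 C, then given test compounds in DMSO plus agonist L165041 (300 nM final). After 17 h at 37 C, beta-lactamase FRET substrate was added; fluorescence read after 2 h at room temperature.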

[6] = biological target: Bile acid receptor (Homo sapiens) (UniProt Q96RI1); test: qHTS assay to identify small molecule agonists of the farnesoid-X-receptor (FXR) signaling pathway (AID 743220; active means well fitted activation curve with a large enough effect in the signal ratio in the repeat runs, not every such curve was filed as active; inconclusive means weak or mixed curves, or effect the other way; the % refers to the signal ratio; further: on the % scale 0 is the no-effect control and ±100 the full control effect); settings: HEK293T FXR-UAS-bla, beta-lactamase FRET ratio, 16 h; activation: at 62.6 µM (top of the series) unless noted
Method in brief: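 Beta-lactamase reporter under UAS control in GeneBLAzer FXR HEK 293T cells (5000/well) measured with LiveBLAzer FRET substrate after 2 h at room temperature. Compound exposure lasted 16 h at 37C.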

[7] = biological target: Vitamin D3 receptor (Homo sapiens) (UniProt P11473); test: qHTS assay to identify small molecule antagonists of the vitamin D receptor (VDR) signaling pathway (AID 743223; active means well fitted inhibition curve with a large enough effect in the signal ratio in the repeat runs, not every such curve was filed as active; inconclusive means weak or mixed curves, or effect the other way; inactive means no such curve, though single readings can be large or run the other way; the % refers to the signal ratio; further: potency means the concentration at half of the fitted maximal effect); settings: VDR-UAS-bla HEK293T, beta-lactamase FRET ratio, 16 h; activity change, negative = inhibition: at 61 µM (top of the series) unless noted
Method in brief: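 Antagonist mode: compound added to VDR-bla cells alongside agonist 1alpha,25-dihydroxyvitamin D3 (3 nM final), incubation 16 h at 37C. Read-out is LiveBLAzer FRET fluorescence, 2 h at room temperature.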

[8] = biological target: Peroxisome proliferator-activated receptor gamma (Homo sapiens) (UniProt P37231); test: qHTS assay to identify small molecule agonists of the peroxisome proliferator-activated receptor gamma (PPARg) signaling pathway (AID 743094; active means well fitted activation curve with a large enough effect in the signal ratio in the repeat runs, not every such curve was filed as active; inconclusive means weak or mixed curves, or effect the other way; inactive means no such curve, though single readings can be large or run the other way; the % refers to the signal ratio; further: potency means the concentration at half of the fitted maximal effect); settings: HEK293H PPARg-UAS-bla, beta-lactamase FRET ratio, 17 h; activation: at 57 µM (top of the series) unless noted
Method in brief: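 GeneBLAzer PPARg UAS-bla HEK293H cells carrying a stably integrated beta-lactamase reporter were pre-incubated 5 h at 37C, then exposed to compounds in DMSO for 17 h at 37C; LiveBLAzer B/G FRET substrate was added for 1 h at room temperature and fluorescence read.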

[9] = qHTS assay for small molecule activators of the heat shock response signaling pathway (AID 743210; active means well fitted activation curve with a large enough effect in the signal ratio in the repeat runs, with a control signal flat, not every such curve was filed as active; inconclusive means weak or mixed curves; the % refers to the signal ratio; further: potency means the concentration at half of the fitted maximal effect); settings: HeLa HSE-bla reporter, beta-lactamase ratio, 5 h; activation: at 62.6 µM (top of the series) unless noted
Method in brief: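 Quantitative high-throughput format using an engineered HeLa line in which heat shock response elements drive beta-lactamase; after 5 h with compound, cells received a B/G FRET substrate and fluorescence was read.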

[10] = qHTS assay to identify small molecule agonists of the peroxisome proliferator-activated receptor delta (PPARd) signaling pathway - cell viability counter screen (AID 743211); settings: PPARd-bla HEK293H viability, CellTiter-Glo luminescence, 17 h; activity change, negative = cytotoxicity: at 62.6 µM (top of the series) unless noted; further: nearly all actives have a fitted effect of over 55% in size; further: potency means the concentration at half of the fitted maximal effect
Method in brief: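 Viability was measured as CellTiter-Glo luminescence (30 min, room temperature) in the same wells as the beta-lactamase readout. GeneBLAzer PPARd UAS-bla HEK293H cells received compound after 5 h plating and were incubated 17 h at 37 C.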

[11] = biological target: Peroxisome proliferator-activated receptor delta (Homo sapiens) (UniProt Q03181); test: qHTS assay to identify small molecule agonists of the peroxisome proliferator-activated receptor delta (PPARd) signaling pathway (AID 743212; calls by dose curve; further: potency means the concentration at half of the fitted maximal effect); settings: HEK293H PPARd-UAS-bla, beta-lactamase FRET ratio, 17 h; activation: at 62.6 µM (top of the series) unless noted
Method in brief: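 Quantitative high-throughput agonist screen in a HEK293H beta-lactamase reporter line under UAS control. Compounds in DMSO, at 37 C. Fluorescence read after 2 h with FRET substrate at room temperature.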

[12] = qHTS assay to identify small molecule antagonists of the peroxisome proliferator-activated receptor gamma (PPARg) signaling pathway - cell viability counter screen (AID 743194); settings: PPARg-bla HEK293H viability, CellTiter-Glo luminescence, 17 h, co-treated with 50 nM rosiglitazone; activity change, negative = cytotoxicity: at 62.6 µM (top of the series) unless noted; further: nearly all actives have a fitted effect of over 55% in size; further: potency means the concentration at half of the fitted maximal effect
Method in brief: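 Cytotoxicity counter screen in PPARg-bla HEK293H cells, same wells as reporter assay. Compounds plus 50 nM rosiglitazone (final) for 17 h at 37 C, then viability read by CellTiter-Glo luminescence.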

[13] = biological target: Bile acid receptor (Homo sapiens) (UniProt Q96RI1); test: qHTS assay to identify small molecule antagonists of the farnesoid-X-receptor (FXR) signaling pathway (AID 743217; active means well fitted inhibition curve with a large enough effect in the signal ratio in the repeat runs, not every such curve was filed as active; inconclusive means weak or mixed curves, or effect the other way; inactive means no such curve, though single readings can be large or run the other way; the % refers to the signal ratio; further: potency means the concentration at half of the fitted maximal effect); settings: HEK293T FXR-UAS-bla, beta-lactamase ratio, CDCA-stimulated, 16 h; activity change, negative = inhibition: at 62.6 µM (top of the series) unless noted
Method in brief: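 FXR-UAS-bla HEK 293T cells pre-incubated 5 h at 37 °C, then exposed to compounds with chenodeoxycholic acid (50 uM final) for 16 h at 37 °C. Beta-lactamase reporter read by LiveBLAzer B/G FRET substrate fluorescence after 2 h at room temperature.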

[14] = qHTS assay to identify small molecule antagonists of the peroxisome proliferator-activated receptor delta (PPARd) signaling pathway - cell viability counter screen (AID 743213); settings: PPARd-bla HEK293H viability, CellTiter-Glo luminescence, 17 h; viability change, negative = cytotoxic: at 62 µM (top of the series) unless noted; further: nearly all actives have a fitted effect of over 50% in size; further: potency means the concentration at half of the fitted maximal effect
Method in brief: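 PPARd-bla HEK293H cells were treated with compounds plus agonist L165041 (300 nM final) for 17 h at 37 C. Viability was then read in the same wells by CellTiter-Glo luminescence after 30 min at room temperature.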

[15] = qHTS assay to identify small molecule agonists of the vitamin D receptor (VDR) signaling pathway - cell viability counter screen (AID 743224); settings: VDR-bla HEK293T viability, CellTiter-Glo luminescence, 16 h; activity change, negative = cytotoxicity: at 62.6 µM (top of the series); further: potency means the concentration at half of the fitted maximal effect; nearly all actives have a fitted effect of over 50% in size
Method in brief: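 VDR-bla cells were preincubated 4 h at 37C/5% CO2, then exposed to compounds for 16 h. After the 2 h room-temperature bla FRET read, CellTiter-Glo was added to the same wells and luminescence read after 30 min.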

[16] = biological target: Vitamin D3 receptor (Homo sapiens) (UniProt P11473); test: qHTS assay to identify small molecule agonists of the vitamin D receptor (VDR) signaling pathway (AID 743222; calls by dose curve; further: potency means the concentration at half of the fitted maximal effect); settings: HEK293T VDR-UAS-bla, beta-lactamase FRET ratio, 16 h; activation: at 63.5 µM (top of the series) unless noted
Method in brief: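 VDR-bla cells were plated 4 h at 37C/5% CO2, then exposed to compounds in DMSO for 16 h. After LiveBLAzer B/G FRET substrate addition and 2 h at room temperature, beta-lactamase reporter fluorescence was read.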

[17] = qHTS assay to identify small molecule agonists of the farnesoid-X-receptor (FXR) signaling pathway - cell viability counter screen (AID 743218); settings: FXR-bla HEK293T viability, CellTiter-Glo luminescence, 16 h; viability change, negative = cytotoxic: at 62.6 µM (top of the series) unless noted; further: nearly all actives have a fitted effect of over 45% in size; further: potency means the concentration at half of the fitted maximal effect
Method in brief: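 FXR-UAS-bla HEK 293T cells, plated 5 h at 37 C, were exposed to compounds for 16 h at 37 C. CellTiter-Glo was then added to the same wells as the bla readout; luminescence read after 30 min at room temperature.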

[18] = qHTS assay for small molecule agonists of the antioxidant response element (ARE) signaling pathway - cell viability counter screen (AID 743203; calls by dose curve; further: potency means the concentration at half of the fitted maximal effect; nearly all actives have a fitted effect of over 55% in size); settings: ARE-bla HepG2 viability, CellTiter-Glo luminescence, 16 h; viability change, negative = cytotoxic: at 73.3 µM (top of the series)
Method in brief: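 CellSensor ARE-bla HepG2 cells, 2,000 per well, rested 5 hrs at 37C/5% CO2, then exposed to compound in DMSO for 16 hrs; viability read as CellTiter-Glo luminescence after 30 min at room temperature, in the reporter wells.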

[19] = qHTS assay to identify small molecule antagonists of the farnesoid-X-receptor (FXR) signaling pathway - cell viability counter screen (AID 743221; active means well fitted cell-killing curve with a large enough effect in the repeat runs, not every such curve was filed as active; inconclusive means weak or mixed curves, or effect the other way; inactive means no such curve, though single readings can be large or run the other way; further: potency means the concentration at half of the fitted maximal effect; nearly all actives have a fitted effect of over 50% in size); settings: FXR-bla HEK293T viability, CellTiter-Glo luminescence, 16 h; activity change, negative = cytotoxicity: at 62.6 µM (top of the series) unless noted
Method in brief: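 Cytotoxicity counter screen run in the FXR-bla reporter wells: HEK 293T cells exposed to compound with 50 uM (final) chenodeoxycholic acid for 16 h, 37 C, then viability measured by CellTiter-Glo luminescence after 30 min, room temperature.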
Tags describe the fitted curve by direction and shape or compound fluorescence and quenching.

UniProt Q03181, sequence (Q03181 whole entry, looked up): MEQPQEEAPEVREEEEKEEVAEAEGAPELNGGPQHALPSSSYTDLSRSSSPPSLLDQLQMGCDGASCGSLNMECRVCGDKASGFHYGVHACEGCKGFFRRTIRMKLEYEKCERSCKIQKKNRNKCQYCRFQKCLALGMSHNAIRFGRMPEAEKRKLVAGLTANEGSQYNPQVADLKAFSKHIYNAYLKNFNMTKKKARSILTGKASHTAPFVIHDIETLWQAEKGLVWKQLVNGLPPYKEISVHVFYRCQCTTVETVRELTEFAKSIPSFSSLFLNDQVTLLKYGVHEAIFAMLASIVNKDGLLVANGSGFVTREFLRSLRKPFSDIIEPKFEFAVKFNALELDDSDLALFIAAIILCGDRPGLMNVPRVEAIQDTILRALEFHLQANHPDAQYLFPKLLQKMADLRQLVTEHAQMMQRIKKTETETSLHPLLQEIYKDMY
UniProt Q96RI1, sequence (Q96RI1 whole entry, looked up): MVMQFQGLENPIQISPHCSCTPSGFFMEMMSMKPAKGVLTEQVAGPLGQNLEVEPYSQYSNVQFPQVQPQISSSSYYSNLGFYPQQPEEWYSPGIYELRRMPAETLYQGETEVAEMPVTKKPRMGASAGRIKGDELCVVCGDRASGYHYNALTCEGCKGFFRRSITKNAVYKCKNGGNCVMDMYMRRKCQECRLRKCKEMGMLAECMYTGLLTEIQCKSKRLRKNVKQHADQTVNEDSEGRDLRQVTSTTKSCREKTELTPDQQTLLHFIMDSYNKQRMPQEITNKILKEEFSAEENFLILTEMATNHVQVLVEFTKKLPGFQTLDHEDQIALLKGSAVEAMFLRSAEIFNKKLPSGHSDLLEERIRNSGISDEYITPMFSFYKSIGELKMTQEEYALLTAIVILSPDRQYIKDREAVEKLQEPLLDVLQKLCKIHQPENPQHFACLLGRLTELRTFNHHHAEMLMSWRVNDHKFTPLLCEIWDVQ
UniProt P35869, sequence (P35869 whole entry, looked up): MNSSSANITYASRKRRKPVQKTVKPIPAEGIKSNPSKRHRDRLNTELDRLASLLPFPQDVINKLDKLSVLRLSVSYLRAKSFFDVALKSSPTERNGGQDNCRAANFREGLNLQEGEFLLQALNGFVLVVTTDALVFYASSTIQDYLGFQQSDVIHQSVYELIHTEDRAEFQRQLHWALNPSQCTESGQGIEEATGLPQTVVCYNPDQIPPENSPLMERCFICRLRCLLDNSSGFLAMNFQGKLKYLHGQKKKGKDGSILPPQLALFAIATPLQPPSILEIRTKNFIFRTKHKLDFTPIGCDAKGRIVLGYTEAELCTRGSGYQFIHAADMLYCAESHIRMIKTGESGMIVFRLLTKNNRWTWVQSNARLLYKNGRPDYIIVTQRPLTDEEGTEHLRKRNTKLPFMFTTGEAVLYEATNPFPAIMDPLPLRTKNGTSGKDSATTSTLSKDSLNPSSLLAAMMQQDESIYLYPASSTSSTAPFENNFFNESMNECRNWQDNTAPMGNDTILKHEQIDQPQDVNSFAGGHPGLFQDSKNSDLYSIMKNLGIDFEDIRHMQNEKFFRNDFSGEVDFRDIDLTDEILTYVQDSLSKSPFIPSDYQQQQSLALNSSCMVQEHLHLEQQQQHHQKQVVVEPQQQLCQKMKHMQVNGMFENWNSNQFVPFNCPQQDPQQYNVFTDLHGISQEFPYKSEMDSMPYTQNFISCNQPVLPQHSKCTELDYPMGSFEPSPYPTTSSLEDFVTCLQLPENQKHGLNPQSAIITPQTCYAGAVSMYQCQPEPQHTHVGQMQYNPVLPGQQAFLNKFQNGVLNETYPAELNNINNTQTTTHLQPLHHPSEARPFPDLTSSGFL
UniProt P37231, sequence (P37231 whole entry, looked up): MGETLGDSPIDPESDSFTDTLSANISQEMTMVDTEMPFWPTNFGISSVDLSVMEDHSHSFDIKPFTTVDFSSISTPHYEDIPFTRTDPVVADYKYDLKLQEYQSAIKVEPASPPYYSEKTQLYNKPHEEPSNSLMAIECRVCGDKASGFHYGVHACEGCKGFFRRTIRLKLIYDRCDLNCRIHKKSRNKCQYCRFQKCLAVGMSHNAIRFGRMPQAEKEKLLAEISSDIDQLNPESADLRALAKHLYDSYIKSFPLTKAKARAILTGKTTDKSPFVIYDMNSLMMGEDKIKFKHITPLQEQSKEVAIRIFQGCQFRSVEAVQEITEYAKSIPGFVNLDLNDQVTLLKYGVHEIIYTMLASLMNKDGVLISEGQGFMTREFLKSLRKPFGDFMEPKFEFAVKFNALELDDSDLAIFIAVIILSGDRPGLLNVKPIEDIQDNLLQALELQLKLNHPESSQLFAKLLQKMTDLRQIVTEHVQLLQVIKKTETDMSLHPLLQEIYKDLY
UniProt P11473, sequence (P11473 whole entry, looked up): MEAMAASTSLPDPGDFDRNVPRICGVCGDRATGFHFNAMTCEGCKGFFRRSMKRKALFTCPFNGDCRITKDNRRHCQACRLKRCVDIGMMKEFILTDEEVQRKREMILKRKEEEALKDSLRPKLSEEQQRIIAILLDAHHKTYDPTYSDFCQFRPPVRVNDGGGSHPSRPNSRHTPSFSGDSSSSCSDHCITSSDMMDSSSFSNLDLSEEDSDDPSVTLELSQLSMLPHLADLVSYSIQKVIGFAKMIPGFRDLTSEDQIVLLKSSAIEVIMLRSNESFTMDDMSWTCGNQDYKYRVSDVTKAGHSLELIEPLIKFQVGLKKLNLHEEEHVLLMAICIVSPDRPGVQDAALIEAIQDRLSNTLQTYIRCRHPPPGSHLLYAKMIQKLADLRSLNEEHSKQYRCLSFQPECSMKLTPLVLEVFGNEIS

C1CC(COCC2CO2)CCC1COCC1CO1 (stereo unspecified)
active: Potency [3] 54.5 µM
inactive: Potency [1] | Potency [2]
inconclusive: Potency [4] 0.0977 µM [rising, full curve, poor fit] | ratio activity, negative = inhibition [5] 0.662% | activation [6] 7.7% | activity change, negative = inhibition [7] 27.4%

CCOC(=O)C1=C(C)NC(C)=C(C(=O)OC)C1c1cccc(Cl)c1Cl (stereo unspecified)
inactive: Potency [10]
inconclusive: activation [8] 7.79% | Potency [3] 18.8 µM [rising, partial curve, poor fit] | Potency [9] 25.1 µM [activator] | Potency [11] 26.6 µM
active: Potency [1] 1.88 µM

NNC(=O)c1cccc(C(=O)NN)c1
inactive: Potency [2] | Potency [12] | Potency [3] | Potency [9] | Potency [13]
inconclusive: activity change, negative = inhibition [7] 8.5%
active: Potency [1] 27.3 µM

CC1(C)O[C@@H]2C[C@H]3[C@@H]4CCC5=CC(=O)C=C[C@]5(C)[C@@]4(F)[C@@H](O)C[C@]3(C)[C@]2(C(=O)CO)O1
inactive: Potency [1]
inconclusive: ratio activity, negative = inhibition [2] 11.3% | activation [3] -4.88% | Potency [10] 27.5 µM [cytotoxic, single point] | Potency [14] 61.7 µM [cytotoxic, partial curve, poor fit] | viability change, negative = cytotoxic [14] -0.181% [cytotoxic] [at 80.4 µM] | Potency [5] 61.7 µM [rising, partial curve, poor fit] | activity change, negative = inhibition [13] 8.2% [at 81.1 µM] | activation [6] 2.35% | activity change, negative = inhibition [7] 6.99% | Potency [15] 61.7 µM [cytotoxic, single point]

c1ccc2sc(SN(C3CCCCC3)C3CCCCC3)nc2c1
active: Potency [3] 30.3 µM
inconclusive: Potency [1] 30.3 µM [activator, partial curve] | Potency [2] 21.6 µM [activator, single point] | Potency [12] 60.9 µM [cytotoxic, single point]

Cc1c[nH]c(=S)[nH]c1=O
inactive: Potency [1] | Potency [8] | Potency [3] | Potency [7]
inconclusive: Potency [10] 61.8 µM [cytotoxic, single point] | Potency [5] 61.8 µM [single point] | Potency [16] 61.8 µM [single point] | Potency [15] 55.1 µM [cytotoxic, single point]

Oc1cc2c(cc1O)[C@H]1c3ccc(O)c(O)c3OC[C@@]1(O)C2
inconclusive: Potency [1] 69.4 µM [activator, single point] | Potency [2] 9.9 µM [rising, full curve, poor fit] | Potency [12] 44.2 µM [cytotoxic, partial curve, poor fit] | activation [3] 22.1% [at 94.8 µM] | Potency [9] 50.8 µM | Potency [17] 11.1 µM [rising, partial curve, poor fit]

Oc1c(I)cc(Cl)c2cccnc12
inconclusive: Potency [8] 48.9 µM [rising, partial curve, poor fit] | Potency [18] 2.66 µM [cytotoxic, full curve, poor fit] | Potency [9] 4.71 µM and 11.9 µM [activator, partial curve] | Potency [10] 13.8 µM [cytotoxic, partial curve] and 6.68 µM [cytotoxic, full curve] | Potency [14] 5.49 µM [cytotoxic, partial curve, poor fit] and 298 nM [cytotoxic, single point] | Potency [5] 13.8 µM [inhibitor, full curve] | ratio activity, negative = inhibition [5] -46% | viability change, negative = cytotoxic [17] -33.3% [cytotoxic] | Potency [19] 61.6 µM [falling, single point] | activity change, negative = inhibition [7] -57.2% [fluorescent] | Potency [15] 13.3 µM [cytotoxic]
active: Potency [1] 944 nM and 61 µM | Potency [12] 4.36 µM and 5.96 µM | Potency [7] 8.69 µM

CC(C)c1nc(CN(C)C(=O)N[C@H](C(=O)N[C@@H](Cc2ccccc2)C[C@H](O)[C@H](Cc2ccccc2)NC(=O)OCc2cncs2)C(C)C)cs1
inconclusive: Potency [1] 13.3 µM [activator, partial curve, poor fit] | Potency [2] 26.6 µM | Potency [3] 11.9 µM [rising, partial curve, poor fit] | Potency [11] 5.96 µM [rising, full curve, poor fit] | Potency [14] 15 µM [cytotoxic, partial curve, poor fit] | Potency [13] 33.5 µM | Potency [17] 26.6 µM [cytotoxic, partial curve] | Potency [19] 33.5 µM [falling, single point]
